“And” between values parts separate entries of the source, which are not always exact repeats. Equal values may be shown once. Screen size: about 110,000 compounds; about 230 (0.21%) showed an effect of 50% or more. Some of the results follow.
These molecules were tested against DPAP1 (Plasmodium falciparum, UniProt Q8IIJ9) (assay: primary screen, percent inhibition; read by cleavage of a fluorogenic dipeptide substrate; higher = more effect of the substance).
Parameters: species or system P. falciparum D10 trophozoite lysates; single well
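Note: 30 min substrate incubation versus DMSO and 10 µM JCP410 controls.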

Chain of DPAP1 (Q8IIJ9 whole entry, looked up): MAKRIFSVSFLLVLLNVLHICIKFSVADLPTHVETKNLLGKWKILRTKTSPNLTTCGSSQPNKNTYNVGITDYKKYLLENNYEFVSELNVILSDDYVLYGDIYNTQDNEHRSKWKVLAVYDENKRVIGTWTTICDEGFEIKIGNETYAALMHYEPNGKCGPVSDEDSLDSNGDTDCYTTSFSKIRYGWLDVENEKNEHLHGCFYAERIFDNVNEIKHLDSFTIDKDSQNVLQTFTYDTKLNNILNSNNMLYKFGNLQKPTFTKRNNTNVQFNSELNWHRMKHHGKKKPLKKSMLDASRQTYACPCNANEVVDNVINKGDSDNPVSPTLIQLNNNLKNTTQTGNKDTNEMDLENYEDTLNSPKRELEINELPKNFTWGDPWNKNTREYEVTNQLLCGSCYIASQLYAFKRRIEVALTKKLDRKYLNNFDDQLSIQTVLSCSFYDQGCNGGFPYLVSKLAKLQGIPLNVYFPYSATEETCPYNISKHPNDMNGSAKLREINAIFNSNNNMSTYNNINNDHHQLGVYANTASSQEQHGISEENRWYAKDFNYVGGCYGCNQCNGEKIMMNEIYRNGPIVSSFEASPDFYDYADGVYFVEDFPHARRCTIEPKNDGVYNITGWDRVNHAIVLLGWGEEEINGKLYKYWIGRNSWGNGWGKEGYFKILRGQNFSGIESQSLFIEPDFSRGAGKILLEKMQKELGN

Row | SMILES | % Inhibition @ 10 uM
1 | Cc1c(C(=O)N(C)CCC#N)oc2ccc(S(=O)(=O)N3CC(C)CC(C)C3)cc12 (centres unmarked) | 3.66%
2 | COC(=O)C1=C(C)N=C2SC(C)C(=O)N2C1c1ccc(OCc2ccccc2)cc1 (centres unmarked) | -1.4%
3 | COc1ccc(-c2c(C)nn3c(N4CCN(c5ccccn5)CC4)cc(C)nc23)cc1OC | -0.138%
4 | Oc1ccc(CN2CCN(c3ncccn3)CC2)cc1 | -5.5%
5 | c1ccc(-n2nnnc2SCCCNCc2ccc3c(c2)OCO3)cc1 | 5.39%
6 | Cc1cccc(NC(=O)CSc2ncccn2)c1 | 0.245%
7 | CC(C)C(=O)NCCCc1nc2ccccc2n1Cc1ccccc1Cl | 2.73%
8 | O=C(O)C1C2C=CC3(CN(Cc4ccccn4)C(=O)C13)O2 (centres unmarked) | -2.87%
9 | NS(=O)(=O)c1ccc(NC(=O)Cc2ccccc2)cc1 | -1.44%
10 | Cc1sc(-n2cccc2CNCc2ccc(F)cc2)c(C(=O)O)c1C | -5.15%
11 | N=C(NOC(=O)COc1ccc(Cl)cc1Cl)c1ccncc1 | 0.128%
12 | CCCC(=O)C1=C(NCCO)CC(C)(C)CC1=O | -7.02%
13 | COc1ccccc1C(=O)O/N=C(\c1ccccc1)c1ccncc1 | 3.16%
14 | CC(C)NC(=O)c1ccc([N+](=O)[O-])cc1 | -4.87%
15 | Cc1ccc(-c2cc(NC(=O)CC(C)C)on2)cc1 | 1.9%
16 | Cc1ccc(C(=O)N2CCCCC2)cc1 | -0.357%
17 | Cc1ccc(OC(C)c2nc(-c3ccc(OCC(N)=O)cc3)no2)cc1C (centres unmarked) | -0.828%
18 | C=CCN1C=CC=C/C1=C\c1sc2ccccc2[n+]1CC | -1.11%
19 | COc1ccc(OC)c(NS(=O)(=O)c2ccc(C)cc2)c1 | 1.61%
20 | O=C(c1ccccc1)C1Oc2ccccc2OCC1(O)c1ccccc1 (centres unmarked) | -2.59%
21 | CCOc1cc(/C=C2\C(=O)ON=C2c2ccccc2)ccc1OC | -1.6%
22 | Cn1c(=O)c2ncn(CC(=O)Nc3ccc(F)cc3)c2n(C)c1=O | 0.161%
23 | CCn1c(=N)n(CC(=O)c2ccc(C)cc2)c2ccccc21 | -0.661%
24 | CC(=O)c1ccc(N2CCN(Cc3ccc(F)cc3F)CC2)cc1 | -1.64%
25 | CCCCNC(=O)c1cccc2c1-c1ccccc1C2=O | -0.478%
26 | COc1ccccc1C1=N/C(=C\c2ccc(Cl)cc2Cl)C(=O)O1 | 3.1%

Row | SMILES | % Inhibition @ 10 uM
27 | O=C(NCc1cccnc1)c1ccc2nc3ccsc3c(=O)n2c1 | -1.54%
28 | Cc1cc(Cl)ccc1OCC(=O)Nc1ccc(Cl)cn1 | 7.73%
29 | O=C(NCc1cccnc1)C1CCN(S(=O)(=O)c2cccc3nsnc23)CC1 | 0.208%
30 | O=C1c2ccc(Br)cc2C(=O)N1c1cc(Cl)ccc1O | 6.49%
31 | Cc1noc(C(=O)Nc2sc3c(c2C#N)CCC3)c1Cl | 1.62%
32 | COc1ccc2nc3oc(C(=O)NC4CCN(Cc5ccccc5)CC4)cc3cc2c1 | 0.208%
33 | Cc1ccc(CCSc2cc(C(C)(C)C)c(F)c(C(C)(C)C)c2)cn1 | -1.42%
34 | CCOc1cccc(OCC)c2c(C)[o+]c(C)c1-2 | 4.18%
35 | O=C(O)C1CCN(S(=O)(=O)c2ccc(Br)s2)CC1 | -7.66%
36 | O=C(Nc1ccc(Cl)c(Cl)c1)c1ccccc1NC(=O)C1CCCCC1C(=O)O (centres unmarked) | -0.95%
37 | Cc1ccc(OCCC(=O)Nc2cc(C)ccc2F)cc1 | 6.65%
38 | O=C(NC(Cc1ccccc1)c1ccc2c(c1)OCCCO2)c1ccco1 (centres unmarked) | 1.27%
39 | COc1ccc(CNCCSc2nnnn2C)c(OC)c1OC | 3.27%
40 | Nc1nonc1-c1nc2ccccc2n1CC(=O)Nc1ccc(OC(F)(F)F)cc1 | 0.231%
41 | CC1=NC(C)=C(C(=O)OC(C)(C)C)C(C(C)C)/C1=C(\O)OC(C)(C)C (centres unmarked) | -2.09%
42 | O=C(NCCCN1CCOCC1)c1ccc2c(c1)OCO2 | -5.85%
43 | CN1CCN(C(=O)CSc2nc3ccc(NC(=O)c4ccccc4F)cc3s2)CC1 | 2.01%
44 | CC(=O)C1=C(O)C(=O)N(CCCN2CCOCC2)C1c1ccc(C)cc1 (centres unmarked) | 1.79%
45 | CC1NC(C)(C)CC(C)(C)c2ccccc21 (centres unmarked) | -3.26%
46 | CCC(C(=O)NCc1ccc2c(c1)OCO2)n1nc(C)c2sc3ccccc3c2c1=O (centres unmarked) | 0.39%
47 | CCOc1ccccc1C(=O)NCc1cccnc1 | 2.01%
48 | CC1=C(C(=O)OCC2CCCCC2)C(c2cccc(Br)c2)NC(=O)N1 (centres unmarked) | 3.61%
49 | CC(CC(=O)NCc1ccccc1)C1CCCO1 (centres unmarked) | 0.986%
50 | O=C1NC(=S)NC(=O)C1=C/C=C/c1ccccc1 | -4.31%
51 | COc1ccc(/N=c2\sc(C)c(-c3ccc(C)cc3)n2CCO)cc1 | 1.02%
52 | CC(C)(C)OC(=O)N[C@@H](Cc1cc(Cl)c(O)c(Cl)c1)C(=O)NC1(C#N)CC1 | -1.41%

Row | SMILES | % Inhibition @ 10 uM
53 | Cc1cc(C)n(Cc2cc(C)c(Cn3nc(C)cc3C)cc2C)n1 | 9.21%
54 | CCN(CC)S(=O)(=O)c1ccc(-c2csc(Nc3ccc(Br)cc3)n2)cc1 | -4.21%
55 | CC(C)OCCCNC(=O)CNC(=O)c1cccs1 | 0.387%
56 | Cc1nn(CCC(=O)NCc2cccc(Cl)c2)c(=O)c2nn(-c3ccccc3)c(C)c12 | -1.03%
57 | COc1cc(/C=C2/NC(=S)NC2=O)ccc1OCc1ccc([N+](=O)[O-])cc1 | -1.15%
58 | Cc1cc(C)c(NC(=O)C2CCCN2CCO)c(C)c1 (centres unmarked) | 0.716% and 1.57%
59 | CC1C/C(=C/c2ccco2)C(=O)/C(=C/c2ccco2)C1 (centres unmarked) | -0.503%
60 | COC(=O)c1ccc2c(c1)C(=O)/C(=C/c1cccc(OC)c1OC)O2 | 1.89%
61 | O=C(O)c1cnn2c1NC(c1ccc(Br)cc1)CC2C(F)(F)F (centres unmarked) | -1.88%
62 | CC(C)CC(=O)C1=C(O)C(=O)N(Cc2ccccc2)C1c1ccccc1F (centres unmarked) | -3.95%
63 | CC1(C)CC(O)(C2(O)CC(C)(C)NC(C)(C)C2)CC(C)(C)N1 | -2.42%
64 | COc1ccc(CNc2ncc3c(n2)CC(c2ccccc2)CC3=O)cc1 (centres unmarked) | 0.561%
65 | CCOc1cc(C2c3c(-c4ccccc4O)n[nH]c3C(=O)N2CCO)ccc1OCc1ccccc1 (centres unmarked) | -4.95%
66 | O=[N+]([O-])c1ccc(N2CCOCC2)cc1Sc1cccc2cccnc12 | 3.61%
67 | CCOC1(C(F)(F)F)NC(=O)N(Cc2ccc(OC)cc2)C1=O (centres unmarked) | -2.72%
68 | Oc1ccc(CN2CCc3ccccc3C2)cc1 | -3.56%
69 | CN(C)CC(C)(C)CNC1CCN(C)CC1 | 2.94%
70 | CC(C)CCNC(=O)CCn1nc(-c2ccccc2)ccc1=O | -3.58%
71 | Cn1c(SCC(=O)c2ccc(Br)cc2)nc2sc3c(c2c1=O)C(C(=O)O)CC3 (centres unmarked) | 3.72%
72 | CCOC(=O)c1c(C)[nH]c(NC(=O)N2CCN(C(=O)c3ccco3)CC2)c1C | 4.18%
73 | CCOC(=O)c1c(C)n(-c2ccc(C)cc2)c2ccc(OCC(O)CNC(CO)(CO)CO)cc12 (centres unmarked) | 3.06%
74 | CCOC(=O)c1cc2c(=O)n3ccccc3nc2n(CCCOC)c1=N | -9.1%
75 | CN1CCN(CCCc2ccccc2)CC1 | -2.34%
76 | CCCNC(=O)CN1C(=O)c2ccccc2Sc2ncccc21 | -12.9%
77 | Cc1oc2ccc(O)c(CN3CC4(C)CC3CC(C)(C)C4)c2c1C(=O)NCc1ccccc1 (centres unmarked) | 0.486%
78 | COCCNC(=O)CNC(=S)N(Cc1ccc(F)cc1)C1CCCCC1 | 4.47%

Row | SMILES | % Inhibition @ 10 uM
79 | CCCC(=O)N(c1ccc2oc(C)c(C(C)=O)c2c1)S(=O)(=O)c1ccc(F)cc1 | -7.83%
80 | Cc1cc(C)cc(NC(=O)Cc2ccccc2)c1 | -0.856%
81 | Cc1nnc(S)n1Cc1ccccc1 | -3.04%
82 | COC(=O)c1ccc(C2C3=C(O)CC(c4ccccc4OC)CC3=NC(C)=C2C(=O)OC(C)C)cc1 (centres unmarked) | 2.25%
83 | Cc1ccc2nc3c(cc(C(=O)NC4CCCC4)c(=N)n3CCCn3ccnc3)c(=O)n2c1 | 1.52%
84 | CCc1ccc2oc(C(=O)NC3CCS(=O)(=O)C3)cc(=O)c2c1 (centres unmarked) | 1.9%
85 | COc1cccc(CN2CCN(C(=O)C(c3ccccc3)c3ccccc3)CC2)c1 | -14.7%
86 | CCOc1ccc(N2CC(C(=O)Nc3ccccc3C(C)C)CC2=O)cc1 (centres unmarked) | 0.583%
87 | CCn1c(=N)n(CCOc2ccc(OC)cc2)c2ccccc21 | 0.528%
88 | CCOC(=O)c1ccc(NS(=O)(=O)c2ccc(-c3ccccc3)cc2)cc1 | -2.7%
89 | Cn1c(NC(=O)c2cc(-c3ccc(Br)cc3)nc3ccccc23)cc(=O)n(C)c1=O | -1.36%
90 | O=S(=O)(c1ccc2c(c1)OCCO2)N1CCCCC1 | 3.83%
91 | Cc1cc(=O)n(Cc2ccccc2F)c2c1c(C)nn2-c1cccc(F)c1 | 2.48%
92 | COC(=O)c1cccc2[nH]ncc12 | -1.75%
93 | N#Cc1c(N2C(=O)CC(c3ccccc3F)C3=C2CCCC3=O)sc2c1CCCC2 (centres unmarked) | -3.34%
94 | CCOCC(=O)Nc1cccc2ccccc12 | -4.15%
95 | COc1cc(-c2nnc3n(Cc4ccccc4Cl)c(=O)c4ccccc4n23)ccc1O | -1.72%
96 | COc1ccccc1-c1cc(C(=O)N2CCN(Cc3ccccc3)CC2)[nH]n1 | -1.3%
97 | c1ccc2oc(-c3nn4c(Cn5cnc6ccccc65)nnc4s3)cc2c1 | 4.47%
98 | O=S(=O)(c1ccc(-c2csc(Nc3ccc(Cl)cc3)n2)cc1)N1CCOCC1 | -1.28%
99 | N#CCc1nc(-c2ccc([N+](=O)[O-])cc2)cs1 | -6.82%
100 | COc1ccc(C2C(C(=O)c3ccccc3)=C(O)C(=O)N2c2nc3ccccc3s2)cc1 (centres unmarked) | -3.75%
101 | CC(CNC(=O)Cn1ncn2nc(-c3cccs3)cc2c1=O)c1ccccc1 (centres unmarked) | -2.85%

— PMC6919601, “Identification of Plasmodium dipeptidyl aminopeptidase allosteric inhibitors by high throughput screening” (PLoS ONE, 2019)
